Results as given in PubChem BioAssay (NCATS).
This list was built around the results that the source calls inconclusive (neither active nor inactive); the mix of calls is not that of the screen. No potency is given beside an inconclusive call; the fits are too rough. Calls of active or inactive are those of the source. The call rests on the fitted dose curve; in most records, active means well fitted inhibition curve with a large enough effect; inconclusive means small, poorly fitted or top-dose-only effect; inactive means no such curve, though single readings can be large or run the other way.

target: N-terminal Xaa-Pro-Lys N-methyltransferase 1 (Homo sapiens) (UniProt Q9BV86); test: Confirmatory qHTS for Inhibitors of N-terminal methyltransferase 1 (NTMT1): MTaseGlo Assay (AID 1645874); conditions: NTMT1 enzyme, MTase-Glo SAH luminescence; series mostly up to 100 µM; activity change, negative = inhibition: at the top concentration; further: nearly all actives have a fitted effect of over 65% in size;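 on activity change, negative = inhibition: luminescence from SAH made as NTMT1 methylates SPKRIA peptide using SAM; 0% = DMSO control and -100% = no-enzyme control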
How it was run: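 qHTS format: NTMT1 125 nM, SAM 100 uM, peptide SPKRIA 1 uM final; 15 min compound preincubation, 30 min reaction at room temperature. MTase-Glo luminescence.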
Potency means the concentration at half of the fitted maximal effect; tags describe the fitted curve by direction and shape.

UniProt Q9BV86, sequence (Q9BV86 whole entry, looked up): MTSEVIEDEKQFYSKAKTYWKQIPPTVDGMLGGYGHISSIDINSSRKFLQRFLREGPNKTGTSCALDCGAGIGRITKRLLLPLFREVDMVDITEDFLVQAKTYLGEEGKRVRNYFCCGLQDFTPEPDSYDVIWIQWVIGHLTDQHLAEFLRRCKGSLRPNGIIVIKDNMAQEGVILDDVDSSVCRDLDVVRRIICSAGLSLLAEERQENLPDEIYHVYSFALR

Row | Structure (SMILES) | Potency | activity change, negative = inhibition
1 | COc1cc2c(NC3CCN(C4CCCCC4)CC3)nc(N3CCCN(C)CC3)nc2cc1OCCOCCN(C)C | inconclusive [inhibitor, partial curve] | –
2 | COc1ccc(C(=O)Nc2onc3c2CCCC3)cc1 | – | inactive: -17.4%
3 | CC(C)(C)c1ccc(-c2csc(N3CCC(C(N)=O)CC3)n2)cc1 | – | inactive: -10.1%
4 | COc1ccc(S(=O)(=O)N(CCc2ccccc2)CC(=O)Nc2cc(Cl)ccc2C)cc1 | inconclusive [inhibitor, partial curve, poor fit] | –
5 | COc1cc2c(NC3CCN(C(C)C)CC3)nc(N3CCCCC3)nc2cc1OCCCN1CCCCC1 | active: 38.8 µM | –
6 | CCCNS(=O)(=O)c1ccc2nc(NC(=O)c3ccc(F)cc3)sc2c1 | inconclusive [inhibitor, full curve, poor fit] | –
7 | CC(C)CCNc1ncnc2c1cnn2-c1cccc(Cl)c1 | active: 14.1 µM | –
8 | COc1ccc(Cl)cc1Nc1ncnc2c1nc1n2CCCC1 | inconclusive [inhibitor, full curve] | –
9 | COCCCNC(=O)c1cc2c(=O)n3cccc(C)c3nc2s1 | inconclusive [inhibitor, partial curve] | –
10 | Cc1cc2c(s1)c1cnn(Cc3cccc(F)c3)c(=O)c1n2C | inconclusive [inhibitor, single point] | –
11 | C[C@]12CCC3=C4CCC(=O)C=C4CC[C@H]3[C@@H]1CC[C@@]2(O)CC#N | inconclusive [inhibitor, partial curve] | –
12 | COc1cc(-c2nc3ccc(Cl)cn3c2Nc2ccc3c(c2)OCCO3)ccc1O | active: 5.15 µM | –
13 | Clc1ccc2c(c1)NC(c1ccncc1)=NC(c1cccs1)=N2 | inconclusive [inhibitor, partial curve] | –
14 | O=C(O)c1ccc(-c2noc(-c3ccccc3F)n2)cc1 | inconclusive [inhibitor, partial curve] | –
15 | Cc1ccc2nc(Cl)c3cc(C(=O)N4CCCCC4C)sc3c2c1 (centres undefined) | inconclusive [inhibitor, full curve] | –
16 | COc1cc(OC)cc(-c2nnc3n2N=C(c2ccc(OC)c(OC)c2)CS3)c1 | inconclusive [inhibitor, full curve] | –
17 | COc1cc(-c2nc3ccc(Cl)cn3c2Nc2ccc3c(c2)OCO3)ccc1O | active: 5.15 µM | –
18 | COc1cccc(-c2n[nH]c3c2C(c2cccc(O)c2)N(C)C3=O)c1 (centres undefined) | active: 44.7 µM | –
19 | COc1cccc(-c2nnc3n2N=C(c2ccccc2OC)CS3)c1 | inconclusive [inhibitor, partial curve] | –
20 | COC(=O)c1ccc(NC(=O)c2nc3ccccc3n(C)c2=O)cc1 | inconclusive [inhibitor, full curve] | –

Row | Structure (SMILES) | Potency | activity change, negative = inhibition
21 | NC(=O)C1CCN(c2nc(-c3cccc4ccccc34)cs2)CC1 | inconclusive [inhibitor, partial curve] | –
22 | Cc1cc(C=CC#N)cc(C)c1Nc1nc(Nc2ccc3c(c2)OCO3)c2[nH]cnc2n1 | inconclusive [inhibitor, full curve] | –
23 | Fc1cccc(Nc2nc(-c3ccncc3)nc3ccccc23)c1 | inconclusive [inhibitor, full curve] | –
24 | COc1cc2c(NC3CCN(CC4CCCCC4)CC3)nc(N3CCCCC3)nc2cc1OCCOCCN(C)C | inconclusive [inhibitor, partial curve] | –
25 | COc1ccc(C(=O)CSc2nc(C)cc(C)c2C(=O)Nc2ccccc2C)cc1 | – | inactive: -6.73%
26 | COCCCNc1ncnc2onc(-c3ccc(F)cc3)c12 | inconclusive [inhibitor, partial curve] | –
27 | O=C(Nc1noc2ccccc12)c1c(F)cccc1F | – | inactive: -15.3%
28 | COc1cc2nc(N(C)C)nc(NC3CCN(C)CC3)c2cc1OC | inconclusive [inhibitor, full curve, poor fit] | –
29 | Cc1cc2c(s1)c1cnn(Cc3cccc(C)c3F)c(=O)c1n2C | – | inactive: -18.3%
30 | CNc1sc(-c2cccc3ccccc23)nc1C#N | – | inactive: -9.3%
31 | COc1ccc(S(=O)(=O)N(CC(=O)Nc2cc(C)ccc2OC)Cc2ccccc2)cc1 | inconclusive [inhibitor, full curve] | –
32 | CCCn1c(/C=C/c2ccccc2)nc2ccccc21 | – | inactive: -25.8%
33 | CNCCCOc1cc2nc(N3CCCN(C)CC3)nc(NC3CCN(C)CC3)c2cc1OC | inconclusive [inhibitor, partial curve] | –
34 | Cc1ccc2nc(-c3ccc(O)cc3)c(Nc3ccc(Cl)cc3)n2c1 | – | inactive: -9.35%
35 | CN(C)CCNc1ncnc2ccc(-c3ccc4c(c3)OCO4)cc12 | inconclusive [inhibitor, partial curve] | –
36 | COc1ccccc1C1NC(=O)c2n[nH]c(-c3cccs3)c21 (centres undefined) | inconclusive [inhibitor, full curve] | –
37 | CCN1CCCN(c2nc(NC3CCN(C(C)C)CC3)c3cc(OC)c(OCCCN4CCCCC4)cc3n2)CC1 | inconclusive [inhibitor, partial curve] | –
38 | CC1CCCN(C(=O)c2cc3ccc4cccnc4c3[nH]2)C1 (centres undefined) | inconclusive [inhibitor, partial curve] | –
39 | COc1ccc(C2=Nn3c(nnc3-c3ccccc3C)SC2)cc1OC | inconclusive [inhibitor, full curve, poor fit] | –
